Test results: article PMC4336329 (PLoS ONE, 2015)
The whole screen tested about 310,000 compounds, of which about 14,000 (4.5%) showed an effect of 50% or more. The effect is printed as a negative number. The list shows a part of the results.

Target: human ether-à-go-go-related gene (hERG) potassium channel (human, UniProt Q12809)
Experiment: primary screen, population patch clamp on CHO cells stably expressing hERG
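Note: peak tail current of the secondary pulse compared with the same well before compound.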

human ether-à-go-go-related gene (hERG) potassium channel, sequence (Q12809 whole entry, looked up): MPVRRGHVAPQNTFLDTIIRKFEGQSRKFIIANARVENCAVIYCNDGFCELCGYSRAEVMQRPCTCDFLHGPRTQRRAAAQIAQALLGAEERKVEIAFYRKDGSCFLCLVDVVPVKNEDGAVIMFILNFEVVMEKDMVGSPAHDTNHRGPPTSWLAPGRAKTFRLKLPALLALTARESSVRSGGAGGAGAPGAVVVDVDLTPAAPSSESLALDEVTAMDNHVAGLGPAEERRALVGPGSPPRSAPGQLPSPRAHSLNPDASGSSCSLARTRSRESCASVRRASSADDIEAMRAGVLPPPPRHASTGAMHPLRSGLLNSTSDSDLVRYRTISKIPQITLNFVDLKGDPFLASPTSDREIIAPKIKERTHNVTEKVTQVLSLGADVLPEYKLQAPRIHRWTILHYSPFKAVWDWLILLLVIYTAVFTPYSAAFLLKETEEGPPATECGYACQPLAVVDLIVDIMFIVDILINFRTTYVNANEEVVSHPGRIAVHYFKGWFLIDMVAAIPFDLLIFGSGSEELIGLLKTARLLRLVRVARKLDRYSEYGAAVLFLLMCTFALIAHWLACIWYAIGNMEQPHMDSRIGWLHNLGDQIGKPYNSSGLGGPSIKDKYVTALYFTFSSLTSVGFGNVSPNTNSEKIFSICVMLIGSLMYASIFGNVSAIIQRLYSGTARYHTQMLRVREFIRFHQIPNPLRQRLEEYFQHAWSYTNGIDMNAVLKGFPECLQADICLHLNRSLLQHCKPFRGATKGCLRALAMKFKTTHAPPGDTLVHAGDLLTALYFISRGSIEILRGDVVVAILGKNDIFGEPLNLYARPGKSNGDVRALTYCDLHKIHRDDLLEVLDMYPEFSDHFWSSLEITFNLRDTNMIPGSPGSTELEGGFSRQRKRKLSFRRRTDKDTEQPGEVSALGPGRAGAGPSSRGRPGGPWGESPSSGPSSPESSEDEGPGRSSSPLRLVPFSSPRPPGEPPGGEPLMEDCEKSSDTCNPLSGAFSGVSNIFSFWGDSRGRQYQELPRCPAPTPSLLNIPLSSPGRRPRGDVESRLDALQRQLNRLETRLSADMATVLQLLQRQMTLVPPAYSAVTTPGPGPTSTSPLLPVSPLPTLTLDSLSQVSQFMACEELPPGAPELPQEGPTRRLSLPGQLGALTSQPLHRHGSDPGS

Row | SMILES | hERG current change (%, negative = inhibition) at 10uM [%]
1 | CCNc1oc(COc2cccc(C)c2)nc1C#N | -12.2
2 | Cn1ccc(NS(=O)(=O)c2cc(Br)ccc2Br)n1 | 0.158
3 | CCOC(=O)c1cc(=O)c2ccc(OCc3ccccc3)cc2o1 | 9.77
4 | CCN(CC)S(=O)(=O)c1ccc(NC(=O)CN(c2cccc(C)c2)S(C)(=O)=O)cc1 | -6.52
5 | CS(=O)(=O)N1CCN(c2ccc([N+](=O)[O-])c(N3CCOCC3)c2)CC1 | 2.27
6 | O=S(=O)(NCC1CCCO1)c1cc(Cl)ccc1Br (stereo not shown) | -10.1
7 | Cc1cccc(C(=O)OCc2cnc(Cl)s2)c1 | -8.04
8 | CC(C)(CNC(=O)CO/N=C1/C=C2CCC3C(C(O)C[C@@]4(C)C3CC[C@]4(O)C(=O)CO)[C@@]2(C)CC1)C(O)C(=O)O (stereo partly shown) | 11.3
9 | COc1cc2c(cc1NC(=O)CN1CCN(S(=O)(=O)c3ccccc3F)CC1)oc1ccccc12 | 10.1
10 | CSc1cc(-c2ccc(Cl)cc2)c(C(=O)NC(C)C)s1 | 1.07
11 | Cc1c(C(C)(C(=O)O)c2c(C)n(C)c3ccccc23)c2ccccc2n1C | 3.83
12 | O=C(O)CC1S/C(=N/N=C/c2ccc(-c3ccc(Cl)c([N+](=O)[O-])c3)o2)NC1=O (stereo not shown) | 31.2
13 | O=C(COc1ccccc1)NCc1nnc2c3ccccc3c(-c3ccccc3)nn12 | -64.6
14 | CN(Cc1ccccc1)C(=O)c1cccc(N2C(=O)NC3CC2(C)Oc2ccccc23)c1 (stereo not shown) | -7.89
15 | COC(=O)c1ccccc1NC(=O)CN1C(=O)CSC1=O | -10.4
16 | CCOc1cc2sc(N3CCC(C(=O)NCCCN4CCCC4=O)CC3)nc2cc1Br | -60.5
17 | CC1=C(C(=O)OC2CCCCC2)C(c2ccco2)C2=C(CC(C)(C)CC2=O)N1 (stereo not shown) | -9.3
18 | COc1ccc(-c2cccc(C3CC=CC4C3C(=O)N(Cc3ccccc3)C4c3ccc(OC)c(Cl)c3)c2)cc1 (stereo not shown) | 22.7
19 | O=C(CSc1c(Cl)cccc1Cl)N1CCC(c2nc3ccccc3s2)CC1 | -0.729
20 | O=C(Cn1c2ccccc2c(=O)c2ccccc21)Nc1ccccc1F | 1.59
21 | C=C1CCN([C@@H](Cc2ccccc2)C(=O)N2CCOCC2)S(=O)(=O)c2ccccc21 | -8.16
22 | O=C(c1ccco1)N1CCN(Cc2ccc(F)cc2Cl)CC1 | -16.4

Row | SMILES | hERG current change (%, negative = inhibition) at 10uM [%]
23 | COc1cccc(NC(=O)CNC(=O)c2ccc(C)cc2)c1 | 17.2
24 | O=C(O)C1CC=C(Cl)CC1C(=O)NCc1ccccc1 (stereo not shown) | 6.61
25 | COc1cccc(CNC(=O)C2CCN(S(=O)(=O)c3c(C)nn(C)c3C)CC2)c1 | -0.0381
26 | Cc1cccc(NC(=S)NNC(=O)c2csc3c2CCCC3)c1 | 19.3
27 | O=C1CC(=O)Nc2cc(S(=O)(=O)N3CCOc4ccccc43)ccc2N1 | 24.8
28 | Oc1ccc(Nc2nc(-c3cccnc3)cs2)cc1 | 13.7
29 | Cc1ccc(S(=O)(=O)N2CCN(c3cccc(C)c3)CC2)cc1 | 14.4
30 | C[C@@H](C(=O)CC(=O)OC(C)(C)C)[C@@H](O)c1ccccc1 | 27.5
31 | COc1ccc(N2CCN(CCOc3ccc4c(C)cc(=O)oc4c3)CC2)cc1 | -26.1
32 | Cc1ccc(SCCC(=O)N(C)CC(=O)Nc2c(C)cccc2C)cc1 | -35.2
33 | CC(=O)c1sc(-c2ccc(Cl)cc2)cc1N | 10.6
34 | CCOC(=O)c1ccc(Oc2cn[nH]c2-c2ccc(OCC(=O)NN)cc2O)cc1 | 10.5
35 | CC(C(=O)Nc1ccc(O)c(C(=O)O)c1)N1C(=O)/C(=C/c2cccs2)SC1=S (stereo not shown) | 17.6
36 | Cc1ccc(CSc2ccc3nnc(-c4ccccn4)n3n2)cc1 | -71.8
37 | CC1CCC(NC(=O)CN2CCC(n3nnc4cc(F)ccc43)CC2)CC1 (stereo not shown) | -58.4
38 | O=C(c1ccc(Oc2ccccc2)cc1)C1CCCN(C(=O)c2cnccn2)C1 (stereo not shown) | -24
39 | CCOC(=O)C1CCN(C(c2cc3ccc(C)cc3[nH]c2=O)c2nnnn2C2CCCCC2)CC1 (stereo not shown) | -44.5
40 | COc1ccc(CCC(=O)NCC(=O)OCc2ccccc2)cc1 | 14.4
41 | COC(=O)[C@@]12CCCN1[C@H](c1ccc(-c3ccc(F)cc3)cc1)[C@H]1C(=O)N(C)C(=O)[C@H]12.O=C(O)C(F)(F)F | -31.2
42 | S=C(c1ccc(N2CCCC2)c(Br)c1)N1CCCCC1 | 4.25
43 | CCc1ccc(C(=O)COC(=O)c2cc([N+](=O)[O-])ccc2NCCO)cc1 | -10.4
44 | COC(=O)Cn1c(C)c(C(C)=O)c(C(C)=O)c1C | 14.1

Row | SMILES | hERG current change (%, negative = inhibition) at 10uM [%]
45 | CN1CCN(c2nnc(-c3ccccc3)c(-c3ccccc3)n2)CC1 | -11.8
46 | Cc1cc(NC(=O)CCC(=O)N(CCc2ccccc2)C(C(=O)NC2CCCC2)c2ccco2)no1 (stereo not shown) | -66.1
47 | Cc1cccc(CCNC(=O)CCS(=O)(=O)c2cc3c(cc2C)NC(=O)CO3)c1 | -21
48 | CCN(CC)S(=O)(=O)c1cc(NC(=O)C(C)Nc2ccccc2N2CCOCC2)ccc1C (stereo not shown) | 30.5
49 | O=c1cc(Cl)[nH]n(-c2ccccc2)c1=O | 17.9
50 | OCCN(Cc1ccccc1)Cc1cccc(F)c1 | 3.32
51 | CCN(CC)C(=O)Cn1cc(C(=O)C(=O)N2CCN(c3ccccc3)CC2)c2ccccc21 | -0.908
52 | COc1cc(/C=C2/CC(C)OC2=O)c([N+](=O)[O-])cc1OC (stereo not shown) | 11.1
53 | CCOC(=O)C1CCN(C(=O)c2ccc(Cl)c(S(=O)(=O)N3CCOCC3)c2)CC1 | -32.4
54 | O=C(N/N=C/c1ccc(OC(=O)c2ccccc2Cl)cc1)c1ccc(O)cc1 | 11
55 | CC(=O)NCCOc1nc(N(C)C)nc(N2CCCCC2)n1 | -8.91
56 | COCCn1c(SCC(=O)c2cccc(OC)c2)nnc1-c1ccco1 | -14.7
57 | CN1C(=O)C(=O)/C(=C(/O)c2ccc(Br)cc2)C1c1ccc(F)cc1 (stereo not shown) | -0.395
58 | CCOc1ccc(CCNC(=O)C2CCCN(c3nnc(-n4cccc4)s3)C2)cc1OCC (stereo not shown) | -20
59 | COCCN(C(=O)CCC(=O)Nc1cc(C)on1)C(C(=O)NC1CCCC1)c1ccccc1C (stereo not shown) | 14.7
60 | COC(=O)C1N2C(=O)[C@@H](NC(=O)COc3ccccc3)[C@H]2SC1(C)C (stereo partly shown) | -4.31
61 | CCOC(=O)C1=C(c2ccccc2)OC(N)=C(C#N)C1c1cccs1 (stereo not shown) | 3.11
62 | COc1ccccc1C(=O)NCCC(=O)N1CCCCCCC1 | 4.61
63 | COc1ccc(-c2nc(-c3cccc(C)c3)no2)cc1OC | 10.7
64 | CC1(C)Cc2sc3c(=O)[nH]c(=S)[nH]c3c2CO1 | 16.6
65 | Cc1ccc(S(=O)(=O)Nc2ccc(O)c(S(=O)(=O)c3ccc(C)cc3)c2)cc1 | 23.6
66 | COc1cccc(NS(=O)(=O)c2ccc(-n3cccn3)cc2)c1 | 5.11

Row | SMILES | hERG current change (%, negative = inhibition) at 10uM [%]
67 | Cc1cc(C)cc(OCC(=O)Nc2ccc3c(c2)OCCO3)c1 | 10.8
68 | O=c1[nH]nc(N2CCOCC2)c(=O)[nH]1 | 2.93
69 | O=C(NCCc1cn2ccccc2n1)c1cc(COc2c(F)cccc2F)on1 | -64.9
70 | O=C(COc1ccc(Br)cc1Cl)NC1CCCCC1 | 9.84
71 | COc1ccc(-c2cc(C)no2)cc1S(=O)(=O)N1CCN(c2cccc(C)c2)C(C)C1 (stereo not shown) | 12.2
72 | COc1ccc(CCNC(=O)C(=O)Nc2ccc3c(c2)OCO3)cc1OC | -7.82
73 | CN1CCN(C2Cc3cc(Cl)ccc3Sc3cc(F)ccc32)CC1.CS(=O)(=O)O (stereo not shown) | -38.2
74 | COC(=O)c1ccc(C)c(NS(=O)(=O)c2ccc(C)c([N+](=O)[O-])c2)c1 | -25.8
75 | C=CCn1cc(C=C2C(=O)N(C)C(=O)N(C)C2=O)c2ccccc21 | 23.9
76 | CCc1cc2c(=O)c(-c3ccc4c(c3)OCCO4)coc2cc1OC(=O)c1ccco1 | -0.816
77 | c1ccc(Cn2c(CNc3nc4ccccc4n3CCN3CCOCC3)nc3ccccc32)cc1 | -84.3
78 | N#CCSc1nnc2sc3ccccc3n12 | 9.35
79 | CC(=O)c1cccc(NC(=O)CC2SC(N3CCCCC3)=NC2=O)c1 (stereo not shown) | -18.6
80 | Cc1cc(C)nc(N/N=C/C(Cl)=C/c2ccccc2)n1 | -9.42
81 | Cl.O=C(/C=C/c1ccco1)OCC1CCCN2CCCCC12 (stereo not shown) | -10.4
82 | CCCS(=O)(=O)c1c(S(=O)(=O)CCC)c2cnccn2c1C(=O)c1ccc(OC)cc1 | 11.9
83 | Oc1ccccc1CNc1nccs1 | 21.3
84 | Cc1ccc(-n2c(SCC(=O)Nc3cc(S(=O)(=O)N4CCOCC4)ccc3Cl)nc3ccccc3c2=O)cc1 | 2.71
85 | O=C(CCCc1ccccc1)N1CCN(c2ccc([N+](=O)[O-])cc2)CC1 | -64.7
